Test results published in PubChem BioAssay AID485344 (National Center for Advancing Translational Sciences (NCATS), 2010).
Among all 340,000 compounds or so, about 6,900 (2%) were called active. Cut-off read from the data, not from the text of the source: active = inhibition above about 30%; inactive = below that, where a call was filed. Only a part is listed here, and it is no random draw. The source gives no active or inactive call for entries shown without one.

biological target: D(2) dopamine receptor (Homo sapiens) (UniProt P14416); assay: HTS Assay for Allosteric Antagonists of the Human D2 Dopamine Receptor: Primary Screen for Antagonists; conditions: HEK293 TREx D2 cells, calcium flux, dopamine EC80; at 10 µM; stronger effect = higher value; note: 0% is about no effect
Chain of UniProt P14416 (P14416 whole entry, looked up): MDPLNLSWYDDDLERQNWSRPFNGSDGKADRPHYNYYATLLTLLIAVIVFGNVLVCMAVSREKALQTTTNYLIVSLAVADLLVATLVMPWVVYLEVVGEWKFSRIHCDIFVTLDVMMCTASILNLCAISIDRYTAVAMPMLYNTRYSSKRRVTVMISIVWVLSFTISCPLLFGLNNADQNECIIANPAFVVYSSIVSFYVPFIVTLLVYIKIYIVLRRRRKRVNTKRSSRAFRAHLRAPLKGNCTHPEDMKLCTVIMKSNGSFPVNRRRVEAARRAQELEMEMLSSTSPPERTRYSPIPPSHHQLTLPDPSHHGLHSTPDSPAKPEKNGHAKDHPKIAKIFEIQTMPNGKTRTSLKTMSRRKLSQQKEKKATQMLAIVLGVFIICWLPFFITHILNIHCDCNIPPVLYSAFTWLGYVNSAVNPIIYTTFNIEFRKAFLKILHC
Summary of the method: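 Calcium flux kinetic readout in an inducible HEK293 TREx D2 line plated overnight at 30 C. After 180 s compound exposure, an EC80 dopamine challenge follows with another 180 s kinetic read to detect antagonism.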

With `Cc1ccc(SCCC(=O)NC(C)C)cc1` the inhibition was active: 32.2%.
In the case of `CNCCCN1c2ccccc2CCc2ccccc21`, the inhibition is reported as active: 39.1%.
For `N#CC1=C(c2ccccc2)/C(=C/c2ccccc2)OC1=O`, the inhibition was active: 35.4%.
`CCCCn1c(SCC(=O)c2ccc(O)cc2O)nc2cc(S(N)(=O)=O)ccc21` was tested, and the inhibition was active: 31.6%.
`FC(F)(F)c1ccccc1CN1CCCC(N2CCN(c3ccccc3)CC2)C1` (configuration not stated) was tested, and the inhibition was active: 78.4%.
With `CC(=O)c1ccc2noc(-c3ccc(F)cc3)c2c1` the inhibition was active: 34.4%.
For `CN(CC1CCN(CCc2cccc(C(F)(F)F)c2)CC1)C(=O)c1ccc(F)cc1`, the inhibition was active: 58.3%.
With `CC1CCN(CCc2nc3cc(NS(=O)(=O)c4ccccc4)ccc3n2C)CC1` the inhibition was active: 30.3%.
`Cc1ccccc1-c1nc(CN(Cc2c(C)nn(C)c2C)C2CC2)c(C)o1` was tested, and the inhibition was active: 30.5%.
In the case of `COC(=O)c1ccc(C(=O)OC)c(NC(=O)CSCc2ccccc2Br)c1`, the inhibition is reported as active: 44.5%.
In the case of `COc1ccc(-c2nc(CS(=O)(=O)CC(=O)NCc3cccc(F)c3)c(C)o2)cc1`, the inhibition is reported as active: 54.3%.
For `CCN(CC)c1ccc2c(c1)oc(=O)c1c(Cl)cc(=O)oc12`, the inhibition was active: 51.4%.

First: COc1ccc(NC(=O)c2cc(S(=O)(=O)N3CCCCCC3)cn2C)c(OC)c1
Second: CC(C(=O)NCc1ccc(Cl)cc1)n1ccc2cc(S(=O)(=O)N3CCCCCC3)ccc21 (configuration not stated)
The inhibition of the first is lower: -12% for the first, 6.39% for the second.

Compared with `C=Cc1ccc(Cn2c(C(=O)O)c(CNC3CCCC3)c3ccc(C)cc32)cc1`, `O=C(NC1CCCCC1)c1ccc(Cn2c(SCc3ccc(F)cc3)nc3cccnc32)cc1` is lower in inhibition: 11.4% for the first, -6.6% for the second.

Compared with `CN(C)S(=O)(=O)c1ccc2c(c1)N(CC(=O)Nc1ccc(OC(F)(F)F)cc1)C(=O)CS2`, `NS(=O)(=O)c1ccc(NC(=O)CN2C(=O)COc3ccc(Cl)cc32)cc1` is higher in inhibition: -1.36% for the first, 0.616% for the second.

Going from `CCOC(=O)c1c(S(=O)(=O)N2CCC(C(=O)NCc3ccc(F)cc3)CC2)c(C)n(C)c1C` to `CCOC(=O)c1c(C)[nH]c(C)c1S(=O)(=O)N1CCCC(C(=O)Nc2ccc(C)cn2)C1` (configuration not stated), the inhibition rises from -10.1% to -0.981%.

Going from `Cc1cccc(N(C)C(=O)CCS(=O)(=O)c2ccc3c(c2)oc(=O)n3C)c1` to `Cc1cc(F)ccc1NC(=O)CCS(=O)(=O)c1ccc2c(c1)CC(C)N2C(=O)C1CC1` (configuration not stated), the inhibition falls from 4.03% to -4.03%.

Going from `COc1ccc(OCC(=O)NC2CC(=O)N(c3cccc(OC)c3)C2)cc1` (configuration not stated) to `COc1ccc(N2Cc3cccc(C(=O)Nc4cc(C)cc(C)c4)c3C2=O)cc1`, the inhibition rises from -15.5% to 6.6%.

Compared with `COc1ccccc1CNC(=O)CCn1nc(C)c2c(C)n(-c3ccccc3)nc2c1=O`, `CCc1ccccc1Nc1nn2c(=O)c3ccc(C(=O)NCc4ccccc4OC)cc3nc2s1` is higher in inhibition: -2.27% for the first, 4% for the second.

First: O=S(=O)(c1ccccc1)c1nnn2c1nc(NCc1ccc(F)cc1)c1sccc12
Second: Cc1ccc(C)c(S(=O)(=O)c2nnn3c2nc(NC(C)C)c2sccc23)c1
The inhibition of the first is lower: -12.6% for the first, 9.05% for the second.

Going from `Brc1ccc(-c2nc3ccccn3c2Nc2ccc3c(c2)OCCO3)o1` to `CCc1cccc(C)c1Nc1c(-c2ccccc2)nc2sccn12`, the inhibition rises from -20.3% to 11.1%.

Compared with `CCCCN(CC)C(=O)CSc1nc2n[nH]c(C)c2c(=N)n1-c1cccc(OC)c1`, `CCOC(=O)CSc1nc2ccccc2c(=O)n1-c1cccc(C)c1` is lower in inhibition: 13.8% for the first, -14.1% for the second.

Going from `COc1cccc(N2CCN(c3ncnc4c3nc3n4CCCCC3)CC2)c1` to `CCOc1ccc(Nc2ncnc3c2nc2n3CCCC2)cc1`, the inhibition rises from -23.9% to 9.97%.

Going from `Cc1ccc(-n2c3nc(=O)[nH]c(=O)c-3cc3c(C)nn(-c4ccccc4)c32)cc1Cl` to `Cc1ccc(-n2nc(CO)c(C(=O)NCCCc3ccccc3)n2)cc1C`, the inhibition falls from 9.5% to 2.41%.

First: CCOC(=O)N1CCN(Cc2nc3cc(NC(=O)c4ccccc4[N+](=O)[O-])ccc3n2C(C)C)CC1
Second: Cc1ccc(S(=O)(=O)N2CCN(Cc3nc4ccc(C)cc4o3)CC2)cc1
The inhibition of the first is lower: -7.27% for the first, -4.83% for the second.

First: Cc1ccc2c(c1)-c1onc(C(=O)N3CCN(c4ccc(Cl)cc4)CC3)c1CO2
Second: O=C(COCc1cc(-c2ccc3c(c2)OCO3)on1)N1CCN(c2cccc(Cl)c2)CC1
The inhibition of the first is higher: 3.62% for the first, 3.29% for the second.

Compared with `Cc1cccc(C)c1NC(=O)NCCc1c[nH]c2ccccc12`, `COc1ccc(C(=O)Nc2ccccc2SCc2cc(=O)c3cccc(C)c3[nH]2)cc1` is lower in inhibition: -0.886% for the first, -3.84% for the second.

First: CCCNC(=O)C1CCC(Cn2c(=O)c3sccc3n(Cc3ccccc3F)c2=O)CC1 (configuration not stated)
Second: COc1ccccc1CCNC(=O)C1CCN(c2nnc(-n3cccc3CNc3ccc(C)cc3)s2)CC1
The inhibition of the first is lower: -13% for the first, -2.53% for the second.

First: CCN(CC)S(=O)(=O)c1nnc(NC(=O)COc2ccccc2F)s1
Second: CCOc1ccc(NC(=O)CSc2ccc(-c3sc(-c4ccccc4)nc3C)nn2)cc1
The inhibition of the first is lower: 6.46% for the first, 10.6% for the second.

First: Nc1c(C(=O)Nc2ccc(OC(F)(F)F)cc2)nnn1Cc1ccccc1
Second: COc1ccc(NC(=O)CCc2nnc3n(Cc4ccccc4Cl)c(=O)c4ccccc4n23)cc1
The inhibition of the first is higher: 4.28% for the first, -1.67% for the second.

Going from `CCOc1ccc(CNC(=O)CSc2cc(=O)n(CC)c3ccccc23)cc1` to `CCCn1c(CNC(=O)c2ccc(F)cc2)nc2ccccc21`, the inhibition rises from -15.9% to -12.4%.

Compared with `Fc1ccc(CNc2ncnc3onc(-c4ccc(F)cc4)c23)cc1`, `Cc1noc(-c2ccc(-c3noc(-c4cccc(F)c4)n3)cc2)n1` is higher in inhibition: -0.0004% for the first, 2.23% for the second.

Going from `O=C(C1COc2ccccc2O1)N(Cc1cccnc1)c1nc2ccc(Cl)cc2s1` (configuration not stated) to `O=C(C1COc2ccccc2O1)N1CCN(c2nc3ccc(F)cc3s2)CC1` (configuration not stated), the inhibition rises from -10.7% to 10.6%.

Going from `Cc1ccc(C#N)c(=O)n1CC(=O)Nc1ccccc1C(F)(F)F` to `O=C(CCCN1C(=O)C(c2ccccc2)Oc2cccnc21)Nc1ccccc1C(F)(F)F` (configuration not stated), the inhibition falls from -20.4% to -24.5%.

Going from `CSC1=NC2(CCN(C(=O)NC3CCCCC3)CC2)N=C1c1ccc(C)cc1` to `Cc1ccccc1C(=O)NC1(C(F)(F)F)N=C(c2ccccc2)N(C2CCCCC2)C1=O` (configuration not stated), the inhibition rises from -28.4% to 0.164%.

First: NC(=O)C1CCN(C(=O)c2cccc(NC(=O)c3nsc4ccccc34)c2)CC1
Second: CCC(Oc1ccccc1F)C(=O)N1CCC(c2nc3ccccc3s2)CC1 (configuration not stated)
The inhibition of the first is higher: 12.6% for the first, 3.14% for the second.

Going from `O=c1cc(-c2ccccc2)nc(SCc2nc(-c3ccc(Cl)cc3)no2)[nH]1` to `O=c1c2cc3c(cc2n(Cc2ccc(F)cc2)c(=O)n1Cc1nc(-c2ccccc2)no1)OCO3`, the inhibition falls from 3.18% to 0.035%.

First: Cc1ccc(S(=O)(=O)N(Cc2nc(-c3cccc(C)c3)no2)C2CCCCC2)cc1
Second: Cc1ccc2oc(-c3ccc(C)c(NC(=O)c4ccc(N5CCC(C)CC5)c([N+](=O)[O-])c4)c3)nc2c1
The inhibition of the first is higher: 3.56% for the first, -10.8% for the second.

Going from `CNS(=O)(=O)c1cn(CC(=O)N2CCN(c3cccc(C)c3C)CC2)cc1S(=O)(=O)NC` to `COc1ccc(S(=O)(=O)NCCS(=O)(=O)N2CCN(c3ccccc3)CC2)cc1C`, the inhibition rises from -5.18% to 19.5%.

Going from `CCN1CCN(C(=O)c2cnn(-c3cccc(Cl)c3)c2C2CCN(C(=O)OC(C)(C)C)CC2)CC1` to `CCNc1cc(N2CCN(C3CCCCC3)CC2)c2noc3c2c1C(=O)c1ccccc1-3`, the inhibition falls from -2.07% to -9.75%.

First: Clc1ccc2c(c1)NC(c1ccncc1)=NC(c1cccs1)=N2
Second: COc1ccc(N2CCN(c3csc4ccc(Cl)cc4c3=O)CC2)cc1
The inhibition of the first is lower: 6.65% for the first, 14.1% for the second.

First: COc1cc(CNC(=O)c2ccc3nc(CCc4ccccc4)oc3c2)cc(OC)c1OC
Second: CCOC(=O)c1oc2ccc(S(=O)(=O)n3nc(-c4cc(OC)c(OC)c(OC)c4)cc3N)cc2c1C
The inhibition of the first is lower: 4.99% for the first, 11.3% for the second.

Compared with `COC(=O)c1c(SC)nc2ccccc2c1OCc1ccc(Cl)cc1`, `Cc1nc(SC(C)C(=O)Nc2ccccc2Cl)cc(-c2ccccc2)n1` (configuration not stated) is higher in inhibition: -4.65% for the first, -1.09% for the second.

Going from `Cc1cccc(NC(=O)c2ccc3snnc3c2)c1C` to `Cc1cccc(NC(=O)c2cc3c(=O)n4cccc(C)c4nc3s2)c1C`, the inhibition falls from -6.2% to -11.8%.

Going from `CC(C)CN(CCCNC(=O)CN1N=C(c2ccc(Cl)cc2)CCC1=O)CC(C)C` to `COC(=O)C(CCSC)NC(=O)c1cc2c(n(-c3ccc(Cl)cc3)c1=O)CCCC2=O` (configuration not stated), the inhibition falls from 16% to 12.7%.

First: CC(C)C(=O)Nc1ccccc1OCc1cc(=O)n2ccccc2n1
Second: O=C(O)Cc1sc(Nc2ccccc2)nc1-c1ccccc1
The inhibition of the first is lower: -9.57% for the first, 9.41% for the second.

First: O=C(NC(=O)c1ccccc1)Nc1ccc(-c2cc(C(F)(F)F)nn2-c2ccccc2)cc1
Second: O=C(O)Cc1ccc(NC2(c3ccccc3)C(=O)c3ccccc3C2=O)cc1
The inhibition of the first is higher: 5.4% for the first, 3.46% for the second.

Going from `CCOc1ccc(NC(=O)C2CCCN(c3ccc(Sc4ccc(C)cc4)nn3)C2)cc1` (configuration not stated) to `CSc1ccc(CCNC(=O)c2ccc(-c3nc(COc4ccc(C)cc4)c(C)o3)cc2)cc1`, the inhibition rises from 1.19% to 5.67%.

Compared with `COc1ccc(Cl)cc1NC(=O)C1CCCN(c2ncnc3onc(C)c23)C1` (configuration not stated), `CCOc1ccccc1CNC(=O)c1c(C)oc2ncnc(N3CCOCC3)c12` is lower in inhibition: -1.38% for the first, -11.1% for the second.

Compared with `O=C(O)c1ccc2nc(-c3cc4cccc(O)c4oc3=O)[nH]c2c1`, `Cc1ccc2nc(-c3ccc(Cl)c(NC(=O)COc4ccc(C(C)C)cc4)c3)oc2c1` is lower in inhibition: 14.6% for the first, 1.31% for the second.

Compared with `COc1ccccc1Cn1cc(C(=O)c2ccc(C)cc2)c(=O)c2cc(C)ccc21`, `O=C(Cn1cc(S(=O)(=O)c2ccccc2)c(=O)c2cc3c(cc21)OCO3)Nc1ccc(Cl)cc1` is lower in inhibition: 10.7% for the first, -4.24% for the second.

First: Cc1c(C(=O)N(Cc2ccc(N(C)C)cc2)CC2CCCO2)oc2ccc(Cl)cc12 (configuration not stated)
Second: COc1ccc(Br)cc1CNC(=O)CCSCc1ccc(C)cc1
The inhibition of the first is higher: -5.27% for the first, -22.5% for the second.

Compared with `CCOc1ccc(Nc2nc3cc(Cl)c(Cl)cc3nc2-n2nc(C)cc2C)cc1`, `COc1ccc(Cl)cc1NC(=O)c1cn(C2CCCCC2)c(=O)c2c1c1ccccc1n2C` is lower in inhibition: 10.5% for the first, 3.21% for the second.

First: COC(=O)c1ccccc1NC(=O)C1=C(C)C(=O)OC12CCCCCC2
Second: Cc1ccc(C)c(NC(=O)C2CCCN(S(=O)(=O)c3cn(C)cn3)C2)c1 (configuration not stated)
The inhibition of the first is higher: 18% for the first, 6.52% for the second.

In the case of `COc1ccc(N2CCN(Cc3cccn3-c3nnc(N4CCN(C5CCCCC5)CC4)s3)CC2)cc1`, the inhibition is reported as 16.1%.
